Results from the supplement of paper PMC12217912.
Some of the results follow. The full chains were built here from the parent and the listed change. Inactive controls read about 0.05.

B1: TEV protease; numbered along this chain (parent)
chain: MGESLFKGPRDYNPISSSICHLTNESDGHTTSLYGIGFGPFIITNKHLFRRNNGTLVVQSLHGVFKVKDTTTLQQHLVDGRDMIIIRMPKDFPPFPQKLKFREPQREERICLVTTNFQTKSMSSMVSDTSCTFPSGDGIFWKHWIQTKDGQCGSPLVSTRDGFIVGIHSASNFTNTNNYFTSVPKNFMELLTNQEAQQWVSGWRLNADSVLWGGHKVFMVKPEEPFQPVKEATQL

Variants of: B1
Experiment: raw area under fraction-flipped curve 0-4 h after induction (AUC4h, not background-subtracted), DNA-recorder readout of cleavage of the substrate (dimensionless); higher = more cleavage of the substrate by the protease variant
Settings: temperature: 34 °C; time window: 0-4 h after rhamnose induction
Description: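 In vivo DNA recorder in E. coli TOP10(DE3) ΔrhaA at 34 °C. Each TEVp single-site mutant (parent TEVp 0) is paired with a single-site variant of the 7-mer TEVs (canonical ENLYFQ|S). The substrate sits between flexible linkers in a Bxb1-sfGFP-TEVs-SsrA fusion, so cleavage stabilises Bxb1 and speeds flipping of a recombination array, read by NGS. The value is the raw area under the fraction-flipped curve over 0-4 h after rhamnose induction (AUC4h), with ≥20 reads per time point. It is not background-subtracted; inactive controls average about 0.047.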
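Further: Bxb1 expression induced with 0.2% (w/v) L-rhamnose at OD600 near 0.5, cultures sampled hourly, flipped fraction per protease–substrate barcode pair counted by paired-end Illumina sequencing.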

Variant	area with substrate ENAYFQS	area with substrate ENCYFQS	area with substrate ENDYFQS	area with substrate ENEYFQS	area with substrate ENFYFQS	area with substrate ENHYFQS	area with substrate ENIYFQS	area with substrate ENNYFQS	area with substrate ENQYFQS	area with substrate ENRYFQS	area with substrate ENSYFQS	area with substrate ENTYFQS	area with substrate ENVYFQS	area with substrate ENYYFQS	area with substrate ENGYFQS	area with substrate ENKYFQS	area with substrate ENPYFQS	area with substrate ENWYFQS	area with substrate ENMYFQS
E3M	0.0277	0.0697	0.0532	0.0604	0.0359	0.0701	0.13	0.0495	0.055	0.0619	0.077	0.0782	0.0808	0.0509	–	–	–	–	–
E3Q	0.0679	0.0673	0.0586	0.0683	0.067	–	0.0796	–	0.0667	–	0.0392	0.0688	0.0658	–	0.0607	0.0698	–	–	–
E3H	0.0498	0.0687	0.0662	0.053	0.0679	0.0459	–	–	0.0546	0.0631	0.0619	0.0639	–	–	–	0.0357	0.045	0.0585	–
Y12L	0.0615	0.0682	0.0553	0.0742	–	–	0.0896	0.0637	0.0666	–	0.0531	0.0792	0.0818	0.0539	0.0636	–	–	0.0682	0.0883
S4C	0.059	–	0.0581	0.0615	0.0674	0.071	0.0936	0.055	0.0697	0.0718	0.0672	–	0.0636	–	0.0669	0.0397	0.0583	0.0777	–
S4H	0.0632	0.074	0.0681	–	0.0559	–	0.135	0.072	0.0641	0.0625	0.0596	0.0595	0.0789	0.0621	–	–	–	–	0.0945
N13E	0.0601	0.0835	0.0604	0.0522	0.0622	–	0.0823	0.0534	0.0562	0.0579	0.07	–	0.0736	–	0.0603	0.071	0.0703	0.0575	0.0745
N13P	0.0636	0.057	0.0514	0.0628	0.0594	0.0604	–	0.0608	0.058	0.0582	0.0611	0.0668	0.0745	0.0246	0.0649	–	0.0612	0.0382	0.0647
N13I	0.0489	0.0664	0.0558	0.0574	0.0634	0.0721	0.0503	0.0536	0.0706	0.0559	0.0604	–	0.0716	0.0554	0.06	0.0487	0.0665	0.068	0.0789
P14Y	0.0751	–	0.063	0.066	0.0623	0.0569	–	0.0665	0.0639	0.0498	0.0485	0.0566	–	0.0616	–	0.0688	0.0804	–	0.0695
P14T	0.0507	0.0807	0.0599	0.0622	0.0685	0.0692	0.122	0.0637	0.0479	0.0512	0.0569	–	0.064	–	0.0651	0.0464	0.042	–	0.0954
P14A	0.0721	0.0686	0.0533	0.0247	–	0.0515	–	0.0497	0.0664	0.061	–	0.0094	0.0844	0.046	–	0.0574	0.0619	–	0.124
